# According to article PMC4336329 (PLoS ONE, 2015):
# Out of some 310,000 compounds screened, about 14,000 (4.5%) showed an effect of 50% or more. The effect is printed as a negative number. The list shows a part of the results.
# Target: human ether-à-go-go-related gene (hERG) potassium channel (human, UniProt Q12809)
# Assay: primary screen, population patch clamp on CHO cells stably expressing hERG
# 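Also: peak tail current of the secondary pulse compared with the same well before compound.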
# Chain of human ether-à-go-go-related gene (hERG) potassium channel (Q12809 whole entry, looked up): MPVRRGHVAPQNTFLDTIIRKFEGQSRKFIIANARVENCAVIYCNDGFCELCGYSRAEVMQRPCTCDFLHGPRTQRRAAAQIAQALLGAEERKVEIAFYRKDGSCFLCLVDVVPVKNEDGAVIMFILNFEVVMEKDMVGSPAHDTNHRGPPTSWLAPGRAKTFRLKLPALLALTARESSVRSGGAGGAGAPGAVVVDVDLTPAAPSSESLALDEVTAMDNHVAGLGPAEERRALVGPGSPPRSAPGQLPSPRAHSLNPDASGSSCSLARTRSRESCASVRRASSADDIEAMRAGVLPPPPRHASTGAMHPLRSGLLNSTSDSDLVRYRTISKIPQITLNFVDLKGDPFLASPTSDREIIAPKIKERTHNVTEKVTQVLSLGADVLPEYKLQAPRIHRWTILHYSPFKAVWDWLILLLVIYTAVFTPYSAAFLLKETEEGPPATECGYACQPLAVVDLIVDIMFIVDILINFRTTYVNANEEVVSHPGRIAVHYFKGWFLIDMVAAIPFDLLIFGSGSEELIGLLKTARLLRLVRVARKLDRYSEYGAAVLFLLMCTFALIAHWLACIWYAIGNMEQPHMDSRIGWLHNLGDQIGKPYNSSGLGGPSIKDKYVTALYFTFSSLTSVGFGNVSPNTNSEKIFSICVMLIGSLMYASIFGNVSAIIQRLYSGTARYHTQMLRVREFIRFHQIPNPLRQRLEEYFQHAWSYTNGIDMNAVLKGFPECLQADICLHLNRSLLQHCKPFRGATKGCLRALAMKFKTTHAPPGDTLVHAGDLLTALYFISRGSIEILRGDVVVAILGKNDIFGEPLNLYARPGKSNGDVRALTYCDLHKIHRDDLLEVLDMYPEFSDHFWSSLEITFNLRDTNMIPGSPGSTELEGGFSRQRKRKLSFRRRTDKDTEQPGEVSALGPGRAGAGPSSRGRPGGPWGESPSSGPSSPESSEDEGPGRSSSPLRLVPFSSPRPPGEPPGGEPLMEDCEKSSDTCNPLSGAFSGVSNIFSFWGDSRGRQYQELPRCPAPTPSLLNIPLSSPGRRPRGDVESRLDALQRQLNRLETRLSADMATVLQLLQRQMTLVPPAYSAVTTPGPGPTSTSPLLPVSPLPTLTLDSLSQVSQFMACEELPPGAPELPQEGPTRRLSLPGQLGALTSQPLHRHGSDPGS
row,SMILES,"hERG current change (%, negative = inhibition) at 10uM [%]"
1,CN=c1scc(C)n1/N=C/c1ccc2c(c1)OCO2,9.55
2,Cc1cccc(C)c1OCc1cc(C(=O)N2CCCCCCC2)no1,-0.442
3,C=CCNC(=O)c1onc(CSc2ccc(F)cc2)c1C(=O)NCC=C,-15.8
4,COc1ccc(N2CCN(C(=O)COC(=O)c3ccccc3OCc3ccc(F)cc3)CC2)cc1,3.18
5,CC(C(=O)NC1C(=O)N2C(C(=O)O)=C(CSc3nnnn3C)CSC12)n1cc(Cl)cn1 (stereo not drawn),11.9
6,COC(=O)CSc1nnc(-c2ccc(S(=O)(=O)NCc3ccccc3Cl)cc2)o1,7.04
7,CC(=O)c1ccc(N2CCN(S(=O)(=O)c3c(C)[nH]c(C)c3C(=O)N3CCCC3)CC2)cc1,-45.9
8,CC(C)(C)C(=O)[C@@H]1[C@@H]2C(=O)N(c3ccc4c(c3)OCCO4)C(=O)[C@@H]2C2c3ccccc3C=CN21 (stereo partly drawn),-20.5
9,CCOC(=O)c1[nH]c(C)c(C(=O)NC(C)CC)c1C (stereo not drawn),8.1
10,CCOc1ccc(OCC(=O)NCCS(=O)(=O)N2CCN(c3ccc(F)cc3)CC2)cc1,-11.7
11,Nc1ccc(Oc2ccc3c(c2)C(=O)N(CC2CCCO2)C3=O)cc1 (stereo not drawn),3.91
12,O=C(NCCCn1ccnc1)C(=O)NCC1OCCN1S(=O)(=O)c1cc(F)ccc1F (stereo not drawn),-3.48
13,COc1cc(-c2nnc(COC(=O)c3cc(C)no3)o2)cc(OC)c1OC,10.5
14,O=C(NCCN1C(=O)S/C(=C/c2cccnc2)C1=O)c1cccs1,-17.2
15,Cc1cccc(NC(=O)CSc2nnc(CSc3nc(C)cc(C)n3)o2)c1,12
16,Cc1cccc(C2CC(c3ccccc3)Nc3ncnn32)c1 (stereo not drawn),-18.1
17,COc1ccc(CNC(=O)CCNS(=O)(=O)c2ccc(C)cc2)cc1,-11.6
18,COC(=O)C1=C(c2ccc(S(C)(=O)=O)cc2)C[C@@H]2CC[C@H]1N2C(=O)NCC1CC1,-10
19,COc1ccc(/C=N/NC(=O)Cn2cnc3ccccc3c2=O)cc1,2.36
20,CS(=O)(=O)c1ccc(NC(=O)CCN2C(=O)C3CCCCC3C2=O)cc1 (stereo not drawn),-11.1
21,CN(CC(=O)Nc1ccccc1C(=O)N1CCCC1)S(=O)(=O)c1ccc(Br)cc1,-31.4
22,Cc1cccc(C)c1OC(=O)CN1C(=O)c2ccccc2C1=O,20.7
23,COc1ccc(CNC(=O)COC(=O)CC(NC(N)=O)c2ccc(Cl)cc2)cc1OC (stereo not drawn),1.27

row,SMILES,"hERG current change (%, negative = inhibition) at 10uM [%]"
1,O=C1C=C(c2ccccc2)C[C@H](c2cccs2)[C@H]1n1nnc([N+](=O)[O-])n1,-19.8
2,Cc1c(C(=O)c2ccccc2C(=O)O)sc2ccccc12,15
3,CC1=CC(c2ccc(Cl)cc2)n2nc(NC(=O)c3ccccc3)nc2N1 (stereo not drawn),-39.8
4,Cc1nnc(NC(=O)C2CC(=O)N(Cc3ccccc3)C2)s1 (stereo not drawn),8.96
5,CCC(=O)N1C(=O)CCN(C(C)=O)c2ccccc21,6.48
6,O=C(Nc1ccc(N2CCOCC2)c(Cl)c1)c1ccco1,-3.16
7,COC(=O)[C@@H]1C[C@]2(C(=O)O)c3ccccc3N(OOSc3ccccc3)[C@@H]2N1C(=O)OC,23.9
8,Cc1ccc(CNC(=O)C2CCCN(S(=O)(=O)c3cnc[nH]3)C2)cc1 (stereo not drawn),4.46
9,Cc1ccc(OCC(=O)N(Cc2ccc(C)o2)C2CCS(=O)(=O)C2)cc1 (stereo not drawn),-52.3
10,O=C1CC(NS(=O)(=O)c2cccs2)CN1c1cccc(F)c1 (stereo not drawn),-6.29
11,CCOC(=O)c1cc(-c2csc(Nc3c(C)cc(C)cc3C)n2)on1,23.4
12,CCSc1nc2c(c(=O)n1-c1ccc(F)cc1)SCC2,-4.12
13,O=C(O)C=C1C2CC3CC(C2)CC1C3,-4.71
14,COc1ccc(-c2cc(-c3cccs3)nc3sc(C#N)c(N)c23)cc1,-0.398
15,CCOC(=O)C1=C(C)NC(C)=C(C(=O)OCC)C1c1nc2ccccc2[nH]1,14.3
16,O=c1[nH]cnc2ccc([N+](=O)[O-])cc12,-2.77
17,OCCSc1nc(-c2cccnc2)nc2ccccc12,-15.1
18,COC(=O)c1c(-n2c(C)cc(C=O)c2C)sc2c1CCCC2,6.81
19,Cc1cc(C)c(S(=O)(=O)c2cc(F)ccc2C)c(Cl)n1,7.31
20,COc1ccc(/C(N)=N/OC(=O)CCCc2ccccc2)cc1OC,-7.19
21,O=P(c1ccccc1)(c1ccccc1)c1nc2ccccc2s1,-15.8
22,Br.COc1ccc(/C(O)=C/Sc2nnc(Cc3ccccc3)o2)cc1,4.42
23,CCOc1ccc(C(C)=O)cc1CN1C(=O)c2ccccc2S1(=O)=O,9.63

row,SMILES,"hERG current change (%, negative = inhibition) at 10uM [%]"
1,Cc1ccc(C)c(NC(=S)NCCCN2CCOCC2)c1,4.83
2,Cc1ccc(C(=O)Nc2ccc(Cl)cn2)cc1,-3.84
3,Cc1cc(NC(=O)CSc2cn(C)c3ccccc23)no1,-4.36
4,CC(C(=O)N1CCN(Cc2ccc3c(c2)OCO3)CC1)c1ccc([N+](=O)[O-])cc1 (stereo not drawn),-34.9
5,Cc1cnc(C(=O)OC(C)C(=O)NCc2ccccc2)cn1 (stereo not drawn),3.99
6,C/C(N)=C(/C#N)C(=O)COC(=O)CSc1ccccc1,15.5
7,CC(C)(C)OC(=O)N1CCC[C@H]1c1nnc(SCc2ccccc2Cl)o1,-5.07
8,NC(=O)Cn1nc([N+](=O)[O-])nc1Oc1ccccc1C(=O)N1CCOCC1,2.94
9,CC(C)Oc1ccc(N2CC(C(=O)Nc3ccccn3)CC2=O)cc1 (stereo not drawn),-34.8
10,c1ccc(NCC2OCc3ccccc3CO2)cc1,-8.61
11,Cc1cc(NC(=O)c2cnn3cccnc23)no1,-0.805
12,COC(CNC(=O)CCc1c(C)nc2c(-c3ccccc3)c(C)nn2c1C)OC,-4.2
13,O=C(NC1CCCCC1)C(c1cccs1)N(CC1CCCO1)C(=O)c1csnn1 (stereo not drawn),-16.1
14,O=C(O)c1ccc2[nH]c3c(c2c1)CSCC3,13.3
15,COc1ccc(-c2nc(Cc3ccc(Cl)cc3)no2)cc1OC,13.8
16,Cc1nnc(SCC(=O)Nc2sc3c(c2C#N)CCCC3)[nH]c1=O,6.79
17,CCOc1nc2c(c(-c3cccs3)c1C#N)Cc1ccccc1-2,18.1
18,COC(=O)c1ccc(CSc2nnc(Nc3ccc(OC)cc3)s2)o1,-8.85
19,Cc1c(C(=O)O)oc2c1C(=O)CC(C)(C)C2,-13.2
20,Cc1ccc2nc(N(CCN3CCOCC3)C(=O)CCS(=O)(=O)c3ccccc3)sc2c1.Cl,5.37
21,Cc1nc(SCC(=O)Nc2cccc(Cl)c2)n[nH]1,6.87
22,CCOC(=O)COc1ccc2nsnc2c1,21.3
23,O=C(CSc1nc2ccccc2nc1SCC(=O)N1CCCCC1)N1CCCCC1,-6.99

row,SMILES,"hERG current change (%, negative = inhibition) at 10uM [%]"
1,CCOc1ccc(NC(=O)CSc2nccn2Cc2ccco2)cc1,-19.5
2,Cc1noc(C)c1S(=O)(=O)N1CCCC(C(=O)N2CCN(C3CCCCC3)CC2)C1 (stereo not drawn),-23.7
3,CC(=O)OC1(C(F)(F)F)Oc2ccccc2NC1=O (stereo not drawn),0.864
4,CCCCC[C@H]1CN(CCCC)C(=O)[C@@H]1CC(=O)NCc1ccccc1,-73.5
5,S=C(Nc1ccccc1)N1CCn2c(nc3ccccc32)C1,-13.1
6,CCOC(=O)N1CCN(C(=O)CSCc2ccccc2Cl)CC1,-1.25
7,Cl.Nc1ccc2nc[nH]c2c1,35.2
8,CCN(CC)CCNC(=O)c1cc2c(=O)n(C)c3ccccc3c2n1C,-1.17
9,O=C(CSc1nc(-c2ccc(F)cc2)cs1)N1CCOCC1,-25.4
10,CCOC(=O)c1cn(C2CC2)c2c(F)c(F)c(F)cc2c1=O,6.74
11,COc1cc(CNn2c(C)n[nH]c2=S)cc(Cl)c1OCc1ccccc1,-18.4
12,C=CCc1c(C)nc(SCc2nc3ccccc3c(=O)[nH]2)[nH]c1=O,17
13,COc1cccc(OCc2ccc(C(=O)NCC3CCCO3)cc2)c1 (stereo not drawn),-7.03
14,CCC(C)Nc1c2c(nc3c(-c4ccccc4)c(C)nn13)CCC2 (stereo not drawn),-17.7
15,c1ccc(-c2noc(CN3CCCC(OCc4ccccn4)C3)n2)cc1 (stereo not drawn),-12.1
16,Cc1ccc(-c2nnn(CC(=O)NCc3ccccc3)n2)c(-n2cnnn2)c1,-1.11
17,COc1ccc(-n2nc(C(=O)NCC(=O)NCCc3ccc(OC)c(OC)c3)c3ccccc3c2=O)cc1,6.36
18,CCC(=O)N1CCCc2cc(S(=O)(=O)NCc3cccs3)ccc21,-6.38
19,O=C(Nc1ccccc1)O/N=C1\CCCCC1c1ccc([N+](=O)[O-])cc1[N+](=O)[O-] (stereo not drawn),-20
20,C=CCN(C(=O)c1ccc(Cl)cc1)c1ccccc1C(=O)NCC(=O)O,21.1
21,O=C(NNC(=O)C1CCC1)c1ccc(Br)cc1,-1.26
